# Out of some 45,000 compounds screened, about 200 (0.44%) were called active. Not shown: some 7% with an inconclusive outcome. Calls come from the whole dose curve; as a rule, active = well fitted activation curve with a large enough effect; inconclusive = small, poorly fitted or top-dose-only effect; inactive = no such curve, though single readings can be large or run the other way. The list shows a part of the results.
# Assay: qHTS of TDP-43 Inhibitors: NCGC Sytravon Library Screen; note: 0% is about no effect; nearly all actives have a fitted effect of over 55% in size
# Details: yeast TDP-43 toxicity rescue, BacTiter-Glo growth, 24 h; series mostly up to 46.1 µM; growth rescue (activation): at the top concentration
# Method in brief: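 TDP-43-expressing yeast, pregrown in raffinose, seeded at OD600 0.02 in galactose medium with compound for 24 hr at 30 deg C. Growth read by BacTiter-Glo luminescence, so rescue of toxicity appears as activation.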
row,SMILES,growth rescue (activation)
1,COc1ccc(C(=O)N/N=C(\C)CC(=O)Nc2ccc3c(c2)OCCO3)c(OC)c1,inactive: 2.58%
2,COc1cc(/C=N/NC(=O)c2c(-c3ccccc3)noc2C)cc(OC)c1OC,inactive: 0.433%
3,O=c1c2cc(NC(=S)NC3CCN(Cc4ccccc4)CC3)ccc2nc2n1CCCCC2,inactive: 6.01%
4,Cc1cc(C(=O)N/N=C/c2ccc(-c3cccc(Cl)c3Cl)o2)n[nH]1,inactive: 7.78%
5,CC1CC(C)(C)NC(=O)O1 (configuration not stated),inactive: -20.3%
6,CC1CCN(C(=S)Nc2cccc(S(=O)(=O)N(C)C)c2)CC1,inactive: 7.53%
7,CN(C(=O)COC(=O)c1cnc(Cl)c(Cl)c1)C1CCS(=O)(=O)C1 (configuration not stated),inactive: -6.86%
8,COc1ccc(-c2cc3nc4n(c(=O)c3s2)CCCCC4)cc1,inactive: 16.1%
9,CCC(C)c1ccc(NC(=O)N2CCN(C(=O)C3CCCO3)CC2)cc1 (configuration not stated),inactive: 15.1%
10,Cc1ccc(S(=O)(=O)N(CC(=O)N2CCOCC2)c2ccccc2F)cc1,inactive: 7.11%
11,O=C(N/N=C/c1ccc(Br)s1)c1ccncc1,inactive: 13.2%
12,Cc1ccc2[nH]c(C(=O)O)c(NC(=O)[C@@H]3C[C@@H]3c3ccccc3)c2c1,inactive: 7.46%
13,CC(C)CN1CCNC(=O)C1CC(=O)NCCc1ccc(C(F)(F)F)cc1 (configuration not stated),inactive: -0.0815%
14,Cc1ccc(N2NC(=O)/C(=C/C=C/c3ccco3)C2=O)cc1C,inactive: 2.5%
15,CCOCC(=O)Nc1ccc(S(=O)(=O)NCC2CCCO2)cc1 (configuration not stated),inactive: 9.51%
16,O=C(COC(=O)C1CC2C=CC1C2)Nc1ccc([N+](=O)[O-])cc1 (configuration not stated),inactive: -6.89%
17,CC(C)(C)c1ccc(S(=O)(=O)NC(=O)C2(C)CCN2C(=O)Cc2cccs2)cc1 (configuration not stated),inactive: 3.33%
18,Cc1cc2ccccn2c1C(=O)c1cccc(S(=O)(=O)N2CCOCC2)c1,inactive: 19%
19,COc1ccc(N2CCN(C(=O)COc3ccc4ccccc4c3)CC2)cc1,inactive: 19.4%
20,O=C(NC1CC1)c1ccc2snnc2c1,inactive: 5.19%
21,N#CC1=C(N)N(c2ccc(Cl)c(Cl)c2)C(=O)C1,inactive: 10.8%
22,COc1ccc(OC)c(S(=O)(=O)NC(=O)C2(C)CCN2C(=O)CC2CCCC2)c1 (configuration not stated),inactive: -23%

row,SMILES,growth rescue (activation)
1,OC1CCN(Cc2cn(Cc3ccccc3)nc2-c2cc3ccccc3o2)CC1,inactive: 3.5%
2,COc1cc(-c2cc(C(=O)Nc3ccc(C)c(S(=O)(=O)N4CCOCC4)c3)c3ccccc3n2)cc(OC)c1OC,inactive: 9.18%
3,O=C(COC(=O)c1cccnc1Nc1ccccc1F)NC1CC1,inactive: 3.37%
4,COc1ccccc1C(=O)CN1C(=O)NC2(CCCCCC2)C1=O,inactive: 8.8%
5,O=C(O)CC12CC3CC(C1)CC(n1ncc(NCc4ccccc4)c(Cl)c1=O)(C3)C2,inactive: 31.2%
6,CCN(C(=O)/C=C/c1ccc2c(c1)OCO2)c1ccccc1,inactive: 16%
7,COc1ccc(S(=O)(=O)N2CCN(CC(=O)N3c4ccccc4CC3C)CC2)cc1OC (configuration not stated),inactive: 26.7%
8,Cc1cc(NC(=O)CCCN2C(=O)/C(=C/c3ccccc3Cl)SC2=S)no1,inactive: 11.4%
9,NC(=O)[C@@H]1CCCN1C(=O)c1ccc2oc(CCc3ccccc3)nc2c1,inactive: -0.792%
10,Cc1cc(C)c2c(=O)[nH]c(SCC(=O)c3ccc(F)c(C)c3)nc2n1,inactive: 4.36%
11,CN(C(=O)COC(=O)c1ccc(Cl)cc1N)C1CCS(=O)(=O)C1 (configuration not stated),inactive: 9.13%
12,Cc1[nH]c(=O)c(C#N)c(C)c1CCC(=O)Nc1cc(S(C)(=O)=O)ccc1Cl,inactive: -4.53%
13,CC(=O)c1ccccc1NC(=O)COC(=O)c1ccccc1NC(=O)c1ccccc1,inactive: 12.4%
14,CC(=O)c1ccc(S(=O)(=O)Nc2ccc(N3CCOCC3)cc2)cc1,inactive: 14.4%
15,N#C/C(=C\c1ccc(-c2ccccc2C(=O)O)o1)c1nc2ccccc2[nH]1,inactive: 7.21%
16,CC1CCCN(Cc2csc(N)n2)C1 (configuration not stated),inactive: 8.71%
17,COc1ccc(/C=C(\NC(=O)c2ccc(C)cc2)C(=O)NCCCN2CCOCC2)cc1OC,inactive: 9.53%
18,COc1cccc(NC(=O)N2CCCC2C(=O)NCc2ccco2)c1 (configuration not stated),inactive: -6.41%
19,CCC(CC)NC(=O)CN1CCN(S(=O)(=O)c2ccc(Br)s2)CC1,inactive: 9.95%
20,O=C(NCc1ccccc1Cl)C1(S(=O)(=O)c2ccc(Cl)cc2)CC1,inactive: 12.2%
21,CCOC(=O)c1c(NC(C)=O)c2c3c(sc2n1Cc1nc(-c2ccc(Cl)cc2)oc1C)CCCC3,inactive: -3.83%
22,c1ccc2c(-c3nnc4n3CCCCC4)cc(-c3ccncc3)nc2c1,inactive: 17.6%

row,SMILES,growth rescue (activation)
1,CCOC(=O)Cc1csc(N/C(=N/S(=O)(=O)c2ccc(F)cc2F)c2ccccc2)n1,inactive: -5.05%
2,Nc1nc(-c2cc(O)ccc2[N+](=O)[O-])cc(-c2ccccc2)c1[N+](=O)[O-],inactive: 1.61%
3,CCOc1ccc(C(=O)Nc2c(C(=O)c3ccccc3)oc3ccccc23)cc1,inactive: 1.8%
4,CCOC(=O)c1c(C)[nH]c(C(=O)N2CCN(C(=O)OCC)CC2)c1C,inactive: -2.08%
5,CC(OC(=O)CNS(=O)(=O)/C=C/c1ccccc1)C(=O)Nc1ccc(S(=O)(=O)N2CCCC2)cc1 (configuration not stated),inactive: 12.5%
6,COc1ccc(S(=O)(=O)NCc2cccnc2)cc1NC(=O)c1ccc(Cl)cc1,inactive: 3.21%
7,O=C(COC(=O)C1=Cc2ccccc2OC1)NCc1ccc(F)cc1,inactive: 9.75%
8,Cc1cccc(C)c1NC(=O)C(=O)c1cn(C)c2ccccc12,inactive: 16.8%
9,CN(c1ccccc1)S(=O)(=O)c1cccc(C(=O)Nc2nn[nH]n2)c1,inactive: 3.08%
10,COc1cc(OC)cc(C(=O)Nc2cccc(NC(=O)c3ccccc3)c2)c1,inactive: 22.6%
11,COc1ccc(C2CCCN2C(=S)Nc2c(C)cccc2C)cc1OC (configuration not stated),inactive: 15.3%
12,COc1ccc(CCN(Cc2ccccn2)C(=S)Nc2ccccc2C)cc1OC,inactive: 16.1%
13,CC(=O)c1cccc(-n2nnnc2SCC(=O)Nc2cc(C)on2)c1,inactive: 12.1%
14,COc1ccc(CC(=O)OC2CCCN(C)C2)cc1 (configuration not stated),inactive: -37.5%
15,Cc1nnc(NC(=O)CS(=O)(=O)Cc2ccccc2)s1,inactive: -29.8%
16,Cc1onc(C(=O)NCc2ccc(F)cc2)c1[N+](=O)[O-],inactive: 12.7%
17,COc1ccc(-c2ccc(CCC(=O)O)n2CC2CCCO2)cc1 (configuration not stated),inactive: 12.4%
18,CN(C(=O)COC(=O)CNC(=O)c1sc2ccccc2c1Cl)C1CCS(=O)(=O)C1 (configuration not stated),inactive: 0.845%
19,C=CCN=C1CC(C)(C)C(C(=O)OC)C(O)=C1C(=O)CCC (configuration not stated),inactive: -0.916%
20,COc1ccc(C(=O)O)cc1S(=O)(=O)NC1CCN(Cc2ccccc2)CC1,inactive: -0.876%
21,COc1ccc2cnn(-c3ccc(OC(F)(F)Cl)cc3)c(=O)c2c1OC,inactive: 17%
22,O=c1c([N+](=O)[O-])c(N2CCCCCC2)c2ccccc2n1-c1ccccc1,inactive: 5.03%

row,SMILES,growth rescue (activation)
1,CCOC(=O)N1CCC(NC(=O)C(NS(=O)(=O)c2ccc3c(c2)CCN3C(C)=O)C(C)C)CC1 (configuration not stated),inactive: 18%
2,O=C(c1ccc([N+](=O)[O-])cc1)N(Cc1ccccc1)c1ccccn1,inactive: 24.3%
3,CCN(CC(=O)NCc1ccc(Cl)cc1)C(=O)c1oc2ccccc2c1C,inactive: 12%
4,O=C(CSc1nc2ccc(Nc3nc(N4CCOCC4)nc(N4CCOCC4)n3)cc2s1)NCc1ccco1,inactive: 15.1%
5,CCOc1ccc2nc(SCC(=O)N3c4ccccc4Sc4ccccc43)sc2c1,inactive: 11.3%
6,CCOc1ccc(S(=O)(=O)NC(C)C(=O)NCc2ccc3c(c2)OCO3)cc1 (configuration not stated),inactive: -10.8%
7,O=C(O)Cn1cnc2c(oc3ccccc32)c1=O,inactive: -4.86%
8,O=[N+]([O-])c1c(-c2cn[nH]c2)n[nH]c1-c1cn[nH]c1,inactive: 4.64%
9,CCOc1ccc2c(c1)-c1c(ssc1=S)C(C)(C)N2C(=O)c1ccco1,inactive: 8.21%
10,OCCN=c1cc(-c2ccccc2)oc2ccc(Cl)cc12,inactive: 13.9%
11,O=C(CSc1nncn1-c1ccccc1)Nc1ccc(F)cc1F,inactive: 12.5%
12,COC(=O)c1ccc(/C=N/N2C(C)CCCC2C)cc1 (configuration not stated),inactive: 4.3%
13,O=C(O)COc1ccccc1/C=N/NC(=O)c1cccc(S(=O)(=O)Nc2cccc(Cl)c2)c1,inactive: -1.61%
14,CCNC(=O)C1CCCN(C(=O)c2ccc3c(c2)OCO3)CC1 (configuration not stated),inactive: 4.69%
15,CCc1ccccc1N(CC(=O)NCc1ccco1)C(=O)CCC(=O)Nc1nccs1,inactive: -0.021%
16,Cc1c(NS(=O)(=O)c2cc(C(=O)O)ccc2Cl)c(=O)n(-c2ccccc2)n1C,inactive: -20.5%
17,CSc1ccc(C(=O)C2CCCN(C(=O)c3ccc(C)nc3)C2)cc1 (configuration not stated),inactive: 7.96%
18,Cc1ccc2c(CC(=O)NC3CCCc4ccccc43)coc2c1 (configuration not stated),inactive: -20.3%
19,CCOc1ccc(-c2nc[nH]c2[N+](=O)[O-])cc1,inactive: 5.75%
20,Clc1ccc(-c2cnc3cccnn23)cc1,inactive: 12.5%
21,COc1ccc(-c2csc3nc(-c4ccccc4OC)oc(=O)c23)cc1,inactive: 4.12%
22,COc1cc(C(N)=O)cc(Cl)c1OC,inactive: 2.64%

row,SMILES,growth rescue (activation)
1,CCN(CC)C(=O)C(Oc1ccc(S(=O)(=O)N2CCCC2)cc1[N+](=O)[O-])c1ccccc1 (configuration not stated),inactive: -9.77%
2,COCCCNC(=O)c1ccc2nc(Cc3ccc(OC)cc3)oc2c1,inactive: 24.9%
3,O=C(N/N=C/c1ccccn1)c1ccc(NC(=O)c2ccc(F)cc2)cc1,inactive: -7.58%
4,CC(C)c1ccc(CNn2cnnc2)cc1,inactive: 5.53%
5,O=C(OCN1C(=O)c2ccccc2C1=O)c1cccs1,inactive: 25%
6,CCCN1CCN(C(=S)Nc2ccc(S(N)(=O)=O)cc2)CC1,inactive: 13.5%
7,O=C(NCc1ccc2c(c1)OCO2)c1cc(-c2cc(Cl)ccc2O)n[nH]1,inactive: 2.76%
8,COc1cc2cc(C(=O)N/N=C/c3cccc(OC)c3OC)[nH]c2cc1OC,inactive: -10.5%
9,Cc1ccc(-c2nc3ccc(Cl)cn3c2Nc2ccc3c(c2)OCCO3)o1,inactive: -3.96%
10,CCC(Sc1nc(C)cc(C)n1)C(=O)Nc1cc(C)on1 (configuration not stated),inactive: 14.4%
11,CC(OC(=O)c1ccc(-c2ccc([N+](=O)[O-])cc2)o1)C(=O)NC(N)=O (configuration not stated),inactive: 3.05%
12,CC1CCCN(C(=O)CSc2nnc(-c3ccc(O)cc3)o2)C1 (configuration not stated),inactive: -5.14%
13,COC(=O)c1ccc(COC(=O)c2cccnc2Cl)cc1,inactive: 17.8%
14,COc1ccc(C(=O)CSc2nccn2C)cc1,inactive: -13.1%
15,CC(C)N(Cc1nc(-c2ccc(Cl)cc2)no1)Cc1nccn1C,inactive: 3.2%
16,CCCCC(=O)Nc1ccc(NC(=O)c2ccccc2[N+](=O)[O-])cc1OC,inactive: -0.742%
17,NC(=O)CN1CCCC1c1ccc2c(c1)OCCO2 (configuration not stated),inactive: 3.71%
18,O=C1CCC(=O)N1Cc1c(Cl)cccc1Cl,inactive: 4.92%
19,O=S(=O)(c1ccc(C2CCCCC2)cc1)N1CCOCC1,inactive: 15.1%

# Source: PubChem BioAssay AID1347073 (National Center for Advancing Translational Sciences (NCATS), 2019)
